Experimental data: PubChem BioAssay AID686978 (National Center for Advancing Translational Sciences (NCATS), 2013)
Several values for one entry are separate records, joined by “and”; a condition that tells them apart may be missing. Equal values may be shown once. The campaign covered roughly 420,000 compounds. About 64,000 (15%) were called active. The inconclusive results got no clear call from the source; some entries with a clear call stand among them for comparison. Calls come from the whole dose curve; as a rule, active = well fitted inhibition curve with a large enough effect; inconclusive = small, poorly fitted or top-dose-only effect; inactive = flat fitted curve, though single readings scatter. No potency is given beside an inconclusive call; the fits are too rough.
% is set by controls: 0 for no effect and ±100 for the full control effect; potency is the fitted concentration of half-maximal effect; tags give direction and shape of the fitted curve.

Assay: qHTS for Inhibitors of human tyrosyl-DNA phosphodiesterase 1 (TDP1): qHTS in cells in absence of CPT; note: nearly all actives have a fitted effect of over 55% in size
Details: DT40 Tdp1-/- hTDP1 cells, no CPT, ATP luminescence, 48 h; activity change, negative = growth inhibition: at 46.2 µM (top of the series) unless noted
In short: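 No-CPT arm: Tdp1-/-;hTDP1 DT40 cells (400/well) plus compounds, incubated ≥48 hr at 37 °C. Readout CellTiter-Glo luminescence.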
For `Nc1nc(=S)[nH]c2c1C1(CCCCC1)Cc1ccccc1-2`, the Potency was inconclusive [inhibitor, single point].
With `CC(C)n1cnc2c(Nc3ccc(C(=O)O)cc3)nc(Cl)nc21` the Potency was “inactive”.
In the case of `COc1ccc(-c2ccc(SCC(=O)c3ccccc3)nn2)cc1OC`, the Potency is reported as active: 13 µM.
With `Cc1cc(S(=O)(=O)NCC(c2ccco2)S(=O)(=O)c2cccs2)ccc1F` (stereo not given) the Potency was inconclusive [inhibitor, full curve, poor fit].
With `CCC1CCCCN1C(=O)CSc1nnc(-c2ccco2)o1` (stereo not given) the activity change, negative = growth inhibition was inconclusive: -35.1% [inhibitor].
In the case of `Cc1cc2cc(C)c3nnc(SCC(=O)NCc4ccco4)n3c2cc1C`, the Potency is reported as inconclusive [inhibitor, partial curve].
With `COC(=O)c1ccccc1NC(=O)CSc1nc(=O)cc(N)n1-c1ccccc1` the Potency was “inactive”.
For `COc1c(Br)cc([N+](=O)[O-])c(OC)c1C(=O)NC(=O)Nc1cc(Cl)cc(Cl)c1`, the Potency was inconclusive [inhibitor, single point].
In the case of `CCC(C)NC(=O)COc1ccc(Br)c(C)c1` (stereo not given), the Potency is reported as inconclusive [inhibitor, single point].
In the case of `COc1ccccc1N/C(N)=N/c1nc(CSc2ccc(C)cc2)cc(=O)[nH]1`, the Potency is reported as active: 7.31 µM.
In the case of `COc1cccc(CC(=O)N2CCN(S(=O)(=O)c3ccc(Br)cc3)CC2)c1`, the Potency is reported as inconclusive [inhibitor, single point].
For `C=C(C)CSc1nc2sc3c(c2c(=O)n1-c1ccc(C)cc1)CCN(C)C3`, the Potency was active: 11.6 µM.
In the case of `NC(=O)CC[C@@H]1NC(=O)[C@H](CO)NC(=O)c2cc([N+](=O)[O-])cc(I)c2NCC[C@@H](C(N)=O)NC1=O`, the Potency is reported as “inactive”.
In the case of `Cc1cccc(C(=O)Nc2cccc(S(=O)(=O)NCc3ccco3)c2)c1`, the Potency is reported as inconclusive [inhibitor, partial curve].
With `CC(C)(C)NC(=O)c1nn2c(C(F)(F)F)cc(-c3ccccc3)nc2c1Br` the Potency was inconclusive [inhibitor, single point].
With `COc1ccc(CNN2CCCCC2C(=O)Nc2ccc(OC)c(OCC(C)C)c2)cc1OC` (stereo not given) the Potency was inconclusive [inhibitor, single point].
For `O=C(NCc1ccncc1)C1CCN(S(=O)(=O)c2cc(Cl)ccc2Cl)CC1`, the Potency was “inactive”.
In the case of `CC(=O)c1ccc(-c2nnc(CCC(=O)N(C)Cc3cnc4ccccn34)o2)s1`, the Potency is reported as “inactive”.
For `Cn1ccc(=NC=C(C#N)C#N)c2ccccc21`, the Potency was inconclusive [inhibitor, single point].
In the case of `CCCCCCCC(=O)N/N=C/c1ccc(Br)cc1`, the Potency is reported as active: 14.6 µM.
For `CC(=O)Oc1ccc2occ(-c3ccccc3)c2c1`, the Potency was inconclusive [inhibitor, partial curve].
In the case of `Cc1cccc(NC(=O)COc2ccc(-c3nn(C)c(=O)c4ccccc34)cc2)c1`, the Potency is reported as active: 20.6 µM and active: 16.4 µM.
For `O=C(NCCC(=O)N(Cc1ccco1)Cc1cccs1)c1ccc([N+](=O)[O-])cc1`, the Potency was inconclusive [inhibitor, single point].
With `CCOc1ccc(CCNC(=O)CCCc2nnc3n(CC)c(=O)c4sccc4n23)cc1OCC` the Potency was inconclusive [inhibitor, single point].
In the case of `C[C@H]1CCCCO[C@H](CN(C)Cc2ccncc2)[C@@H](C)CN([C@@H](C)CO)C(=O)c2cc(NS(=O)(=O)c3ccccc3)ccc2O1`, the activity change, negative = growth inhibition is reported as inconclusive: -20.4% [inhibitor].
For `O=C1CCCC(O)=C1C1C2=C(CCCC2=O)OC2=C1C(=O)CCC2`, the Potency was “inactive”.
In the case of `Cc1ccc(CNC(=O)c2c(-c3ccccc3Cl)noc2C)o1`, the Potency is reported as inconclusive [inhibitor, single point].
In the case of `CC/C(=N\NC(=O)c1ccc(-c2ccccc2)cc1)C12CC3CC(CC(C3)C1)C2`, the Potency is reported as active: 13 µM.
In the case of `CN1CCC(N2CCN(C3CN(Cc4ccccc4)S(=O)(=O)C3)CC2)CC1` (stereo not given), the Potency is reported as “inactive”.
For `CCc1nc2sc(C(=O)O)c(N)c2c2c1CCCC2`, the activity change, negative = growth inhibition was inconclusive: -36.7% [inhibitor].
In the case of `Cc1coc2cc3oc(=O)c(CC(=O)NCc4cccc(Cl)c4)c(C)c3cc12`, the Potency is reported as active: 20.6 µM.
In the case of `Cn1c(SCC(=O)Nc2sccc2C(N)=O)nc2ccccc2c1=O`, the Potency is reported as inconclusive [inhibitor, single point].
For `O=C(COc1ccccc1Cl)N1CCN(c2ccccn2)CC1`, the Potency was “inactive”.
For `COc1ccc(OC)c(NC(=O)CCNC(=O)N2CC(=O)Nc3ccccc32)c1`, the Potency was “inactive”.
For `COc1ccc(S(=O)(=O)N2CCCC2CNC(=O)C(=O)NC2CCCC2)cc1` (stereo not given), the Potency was inconclusive [inhibitor, single point].
With `CCC1=C(OC(=O)N(CC)CC)N2C(=O)OC(=NCCc3c[nH]c4ccccc34)[C@]2(Cc2ccccc2)[C@H]2C1=CC[C@H]1C(=O)N(CC)C(=O)[C@H]12` the Potency was inconclusive [inhibitor, single point].
In the case of `CCS(=O)(=O)c1ccc(O)c(NC(=O)Nc2ccc(C(C)(C)C)cc2)c1`, the Potency is reported as inconclusive [inhibitor, single point].
With `Cc1cccc(NC(=O)C(C)SCc2ccccc2)c1` (stereo not given) the Potency was “inactive”.
For `O=C(c1cc2c(c(-c3cccc(-c4ccc(F)cc4)c3)n1)[C@H](CCO)N(C(=O)c1ccc3c(c1)OCO3)C2)N1CCOCC1`, the Potency was inconclusive [inhibitor, partial curve, poor fit].
For `CSc1nnc(NC(=O)c2cc3ccccc3oc2=O)s1`, the Potency was “inactive”.
With `COc1cc(OC)c(NC(=O)CN2CCCN(Cc3ccccc3C)S2(=O)=O)cc1Cl` the Potency was “inactive”.
For `O=[N+]([O-])c1ccc(O)c(Nc2ncnc3ccc(Br)cc23)c1`, the Potency was active: 11.6 µM.
In the case of `Cc1cc(N2CCN(C)CC2)nc2ccc(NC(=S)NCCCN3CCc4ccccc4C3)cc12`, the Potency is reported as inconclusive [inhibitor, single point].
In the case of `CC(=O)NC(CC(=O)OCC(=O)N1CCN(S(=O)(=O)c2ccc(C)cc2C)CC1)c1ccccc1` (stereo not given), the Potency is reported as “inactive”.
For `COn1c(-c2ccccc2)nc2c1CCc1c-2no[n+]1[O-]`, the Potency was inconclusive [inhibitor, partial curve, poor fit].
